Laboratory results as given in the supplement of paper PMC8285479.
Where a name gives a salt, the structure may show the parent alone. ± gives the standard deviation of the averaged measurements. The full ranking holds about 1,900 compounds; the median of “normalised cell viability (NPI; 0 = phenylarsine oxide control, 1 = DMSO control)” is about 1, and the lowest 2% start at about 0.039. The list shows a part of the results.

Tested on: NCI-H1944
Assay: normalised cell viability (NPI; 0 = phenylarsine oxide control, 1 = DMSO control) (fraction of DMSO control); NCI-H1944 is a non-small cell lung cancer line; higher = more viable cells (less compound toxicity)
Settings: 6 days
[1] = glucocorticoid arm: hydrocortisone 2.75 uM co-treatment, compound 1 µM
[2] = glucocorticoid arm: hydrocortisone 2.75 uM co-treatment, compound 5 µM
[3] = glucocorticoid arm: hydrocortisone 2.75 uM pre-treated 2 days and continued, compound 1 µM
[4] = glucocorticoid arm: hydrocortisone 2.75 uM pre-treated 2 days and continued, compound 5 µM
[5] = glucocorticoid arm: vehicle, compound 1 µM
[6] = glucocorticoid arm: vehicle, compound 5 µM
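Also: CTB read-out in 384-well plates, mean of triplicate wells, normalised per plate against 1 µM phenylarsine oxide and 0.1% DMSO, compounds added 24 h after seeding.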

Structure (SMILES)	normalised cell viability [1]	normalised cell viability [2]	normalised cell viability [3]	normalised cell viability [4]	normalised cell viability [5]	normalised cell viability [6]
CN(C)C/C=C/C(=O)Nc1cc2c(Nc3ccc(F)c(Cl)c3)ncnc2cc1O[C@H]1CCOC1 [BIBW2992; BIBW2992(Tovok)]	0.904 ± 0.02	1.01 ± 0.023	0.9247 ± 0.0074	0.982 ± 0.019	0.897 ± 0.012	0.9953 ± 0.0045
CN(C)C/C=C/C(=O)Nc1cc2c(Nc3ccc(F)c(Cl)c3)ncnc2cc1O[C@H]1CCOC1 [Afatinib (BIBW2992)]	0.91 ± 0.015	0.761 ± 0.058	0.925 ± 0.022	0.797 ± 0.044	0.8623 ± 0.0057	0.61 ± 0.02
CN1Cc2c(N)cccc2C(c2ccccc2)C1 (stereo not given) [Nomifensine maleate]	0.999 ± 0.011	0.997 ± 0.022	0.99967 ± 0.00058	1.06 ± 0.064	1.01	1.02 ± 0.011
CNC(=O)c1ccc(C)c(-n2c(C)cc(OCc3ccc(F)cc3F)c(Br)c2=O)c1	0.791 ± 0.021	0.729 ± 0.03	0.771 ± 0.025	0.7697 ± 0.0051	1.007 ± 0.0058	0.9993 ± 0.0011
CNC(=N)NCCC[C@H](N)C(=O)O [NG-Monomethyl-L-arginine acetate]	1.001 ± 0.009	0.985 ± 0.022	1.001 ± 0.0081	0.879 ± 0.24	0.9883 ± 0.0097	0.991 ± 0.0079
NC(=O)c1cccc(N)c1 [3-Aminobenzamide]	0.995 ± 0.0052	1.02	0.998 ± 0.0035	1.02 ± 0.01	1.02 ± 0.011	1.017 ± 0.0058
NC(=O)c1cccc(N)c1 [3-aminobenzamide]	1 ± 0.014	1.02 ± 0.032	0.9957 ± 0.0075	1 ± 0.021	1.002 ± 0.0068	1.007 ± 0.0058
Cc1ccc(-n2nc(C(C)(C)C)cc2NC(=O)Nc2ccc(OCCN3CCOCC3)c3ccccc23)cc1 [BIRB 796 (Doramapimod)]	0.806 ± 0.012	0.826 ± 0.03	0.775 ± 0.019	0.816 ± 0.034	0.995 ± 0.005	1.017 ± 0.0058
COCCc1ccc(OCC(O)CNC(C)C)cc1 (racemic) [(±)-Metoprolol (+)-tartrate]	0.9903 ± 0.006	0.9673 ± 0.0059	0.995 ± 0.0036	1.02 ± 0.073	0.9913 ± 0.0011	0.998 ± 0.012
CN(C)CC/C=C1/c2ccccc2COc2ccc(CC(=O)O)cc21 [Olopatadine HCl]	1.01 ± 0.022	1.03 ± 0.015	1.01 ± 0.01	1.02 ± 0.036	1.002 ± 0.0068	1.006 ± 0.0069
O=C(O)C1=CCCN(CCON=C(c2ccccc2)c2ccccc2)C1 [NO-711 hydrochloride]	1.003 ± 0.0058	0.994 ± 0.02	0.996 ± 0.015	1.03 ± 0.026	1.01	1.01 ± 0.015
Nc1ncnc2n[nH]c(Nc3ccc(F)cc3)c12	0.9963 ± 0.0021	0.733 ± 0.029	1.03 ± 0.04	0.9867 ± 0.0078	0.994 ± 0.006	0.904 ± 0.017
CN(C)Cc1ccc(S(=O)(=O)n2ccc(/C=C/C(=O)NO)c2)cc1 [Resminostat]	0.941 ± 0.011	0.92 ± 0.018	0.961 ± 0.011	1.023 ± 0.0058	1.001 ± 0.0081	0.214 ± 0.026
C[C@@H]1COC(Nc2ccc3ncnc(Nc4ccc(OCc5nccs5)c(Cl)c4)c3c2)=N1	0.988 ± 0.028	0.981 ± 0.022	0.9923 ± 0.005	0.998 ± 0.03	0.929 ± 0.014	0.886 ± 0.025
Oc1cccc(-c2nc(N3CCOCC3)c3oc4ncccc4c3n2)c1	1.01 ± 0.015	1.04 ± 0.021	0.997 ± 0.025	1.01 ± 0.02	1.01	1.02 ± 0.026
C#CCn1c(=O)c2c(ncn2C)n(C)c1=O [3,7-Dimethyl-1-propargylxanthine]	0.987 ± 0.013	0.98 ± 0.0087	0.991 ± 0.0017	0.96 ± 0.033	0.9793 ± 0.0031	0.985 ± 0.0056
CC(N)(Cc1ccc(O)c(O)c1)C(=O)O (racemic) [(±)-3-(3,4-dihydroxyphenyl)-2-methyl-DL-alanine]	1.01	1.01 ± 0.068	1.01 ± 0.017	0.99 ± 0.018	1.023 ± 0.0058	0.986 ± 0.06
CN(C)CCC(c1ccc(Br)cc1)c1ccccn1 (single isomer, unassigned; (+)) [(+)-Brompheniramine maleate]	1.01 ± 0.017	1.023 ± 0.0058	1.05 ± 0.04	1.03 ± 0.021	1.006 ± 0.0069	1.02 ± 0.011
C=CS(=O)(=O)NC1CCN(C(=O)CNc2cc(I)c(Cl)cc2OC)CC1 [K-Ras(G12C) inhibitor 9]	1.03 ± 0.01	1.07 ± 0.029	1.04	1.04 ± 0.025	0.993 ± 0.0036	0.996 ± 0.014
CCN(CC)CCCCNc1ncc2cc(-c3cc(OC)cc(OC)c3)c(NC(=O)NC(C)(C)C)nc2n1	0.9727 ± 0.0096	0.813 ± 0.061	0.946 ± 0.02	0.829 ± 0.044	0.9957 ± 0.0045	0.98 ± 0.01
Cc1ccc([N+](=O)[O-])cc1S(=O)(=O)N(C)/N=C/c1cnc2ccc(Br)cn12	0.025 ± 0.0023	0.0304 ± 0.0032	0.0674 ± 0.0086	0.0802 ± 0.022	0.0104 ± 0.005	0.00623 ± 0.0011
COc1cc(-c2ccc(=O)[nH]n2)ccc1OC(F)F [Zardaverine]	1.01 ± 0.01	1.03 ± 0.025	1.04 ± 0.055	1.04 ± 0.011	1.01 ± 0.01	1.017 ± 0.0058
CC[N+](CC)(CC)CC(=O)Nc1c(C)cccc1C [Lidocaine N-ethyl bromide]	1.002 ± 0.0067	0.994 ± 0.023	1 ± 0.012	1.01 ± 0.062	1.003 ± 0.0061	1.01 ± 0.01
O=c1[nH]c(=O)n([C@H]2C[C@H](O)[C@@H](CO)O2)cc1Br [5-Bromo-2'-deoxyuridine]	1.01 ± 0.01	1.073 ± 0.0058	1.001 ± 0.009	1.05 ± 0.021	0.98 ± 0.011	1
COc1cc(OC)c(/C=C/S(=O)(=O)Cc2ccc(OC)c(NCC(=O)O)c2)c(OC)c1	0.307 ± 0.021	0.261 ± 0.026	0.572 ± 0.03	0.572 ± 0.051	0.0447 ± 0.0079	0.0341 ± 0.0062
